# Results from the supplement of paper PMC10441789.
# The other results are listed elsewhere or left out. Antibody binding of pooled human sera (four to six donors per pool; dilution not stated) to peptides of the Trypanosoma cruzi antigen TSSA on microarrays. Quantile-normalised fluorescence in arbitrary units, mean of duplicate arrays; higher = more binding. No active / inactive call. The uninfected pools are read here as the healthy donors of the same country. The strongest signals lie near the top of the scale (about 60,000).
# Legend:
# Assay in all cases: antibody binding signal (normalised fluorescence) (arbitrary fluorescence units); higher = stronger serum antibody binding to peptide
# [1] = test system: pooled sera of chronic Chagas disease patients, Argentina
# Protocol: (§1)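 Microarray of 15-residue peptides over residues 30-55 of Trypanosoma cruzi TSSAII, each with 1 to 10 substitutions at naturally variable positions, probed with one serum pool per country.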
# [2] = test system: pooled sera of chronic Chagas disease patients, Bolivia
# Protocol: as §1
# [3] = test system: pooled sera of chronic Chagas disease patients, Brazil
# Protocol: as §1
# [4] = test system: pooled sera of chronic Chagas disease patients, Colombia
# Protocol: as §1
# [5] = test system: pooled sera of chronic Chagas disease patients, Mexico
# Protocol: as §1
# [6] = test system: pooled sera of chronic Chagas disease patients, USA
# Protocol: as §1
# [7] = test system: pooled sera of uninfected people, Argentina
# Protocol: as §1
# [8] = test system: pooled sera of uninfected people, Bolivia
# Protocol: as §1
# [9] = test system: pooled sera of uninfected people, Brazil
# Protocol: as §1
# [10] = test system: pooled sera of uninfected people, Colombia
# Protocol: as §1
# [11] = test system: pooled sera of uninfected people, Mexico
# Protocol: as §1
# [12] = test system: pooled sera of uninfected people, USA
# Protocol: as §1
Sequence,antibody binding signal [1],antibody binding signal [2],antibody binding signal [3],antibody binding signal [4],antibody binding signal [5],antibody binding signal [6],antibody binding signal [7],antibody binding signal [8],antibody binding signal [9],antibody binding signal [10],antibody binding signal [11],antibody binding signal [12]
KTATGGAPSPPGASS,592,186,309,404,408,627,405,120,129,119,93.3,152
KPATGGTPSQPGASS,563,268,2470,763,405,269,309,485,216,193,292,161
GKEKKPAAGETPSPS,5850,665,1510,4140,7720,5190,127,159,93.5,145,89.4,483
PSGKDKKAATGEAPS,19100,3800,14500,2470,3360,20300,311,233,98.8,197,78.5,143
KDKKTATGETPSPSG,222,196,220,199,326,4840,214,117,84,89.5,115,923
STPPSGKDNKAAAGG,24800,5530,7150,457,22000,2790,334,504,124,168,114,135
SGKEKKAAAGGTPSP,2980,250,1710,4990,4890,5360,124,88.5,533,145,95.2,121
GKEKKTATGGAPSPS,3190,223,551,2850,1990,2070,238,126,118,85.4,140,98
GTDNKPATGETPSPS,36200,32400,43800,1440,358,25500,195,731,468,177,1870,2240
STPPSGTEKKAAAGG,42600,13500,33200,6320,32000,5800,1250,321,226,147,195,338
KENKTAAGETPSPPG,195,260,618,1030,258,2160,202,208,160,123,233,983
TDKKPATGGAPSQSG,1470,655,1810,2090,1400,1420,480,1310,161,150,168,171
GTDNKPATGETPSQS,37400,32400,44200,1160,241,28400,239,685,581,134,1750,119
